# Data as given in PubChem BioAssay AID686979 (National Center for Advancing Translational Sciences (NCATS), 2013).
# About 50,000 (12%) of roughly 420,000 compounds were called active. Inconclusive means that the source gave no clear call. Such entries were picked first, then a sample of the others. The call rests on the fitted dose curve; in most records, active means well fitted inhibition curve with a large enough effect; inconclusive means small, poorly fitted or top-dose-only effect; inactive means flat fitted curve, though single readings scatter. No potency is given beside an inconclusive call; the fits are too rough.
# Assay: qHTS for Inhibitors of human tyrosyl-DNA phosphodiesterase 1 (TDP1): qHTS in cells in presence of CPT; further: nearly all actives have a fitted effect of over 55% in size
# Conditions: chicken DT40 Tdp1-/-;hTDP1 cells + 20 nM CPT, ATP luminescence, 48 h; activity change, negative = growth inhibition: at 46.2 µM (top of the series) unless noted
# Method in brief: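 Chicken DT40 Tdp1-/- cells stably complemented with human TDP1 were seeded at 400 cells/well in medium containing 20 nM camptothecin, exposed to pin-transferred compounds, and grown at 37 °C for at least 48 hr. Viability was read as ATP luminescence.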
# On the % scale 0 is the no-effect control and ±100 the full control effect; potency means the concentration at half of the fitted maximal effect; tags describe the fitted curve by direction and shape.
SMILES,Potency,"activity change, negative = growth inhibition"
C[C@@H]1COC(=O)[C@H](Cc2ccc(F)cc2)CC/C=C\C[C@@H](CC(=O)NCCO)C(=O)N1,inactive,
Cc1ccccc1CN1C(=O)c2ccccc2S(=O)c2ccc(C(=O)NC3CCC(C)CC3)cc21 (configuration not stated),"inconclusive [inhibitor, single point]",
COc1ccc(NC(=O)CN(C)C(=O)CN2C(=O)c3ccc([N+](=O)[O-])cc3C2=O)cc1,inactive,
O=C(CCS(=O)(=O)c1ccc(Cl)cc1)Nc1nnc(-c2ccco2)o1,active: 9.2 µM,
CSc1ccc(/C=C/C(=O)N2CCCN(C)CC2)cc1,inactive,
COC(=O)[C@]12CCCCC=C1N(Cc1cccc3ccccc13)C(=O)[C@H](CC(=O)NCc1ccc(OC)c(OC)c1)C2,"inconclusive [inhibitor, single point]",
CC(=O)N1CCCN(Cc2cn(-c3ccc(C)cc3)nc2-c2cccc(C)c2)CC1,"inconclusive [inhibitor, single point]",
Cc1c(C(=O)NC(=S)N(Cc2ccccc2)c2ccccn2)cccc1[N+](=O)[O-],"inconclusive [inhibitor, partial curve]",
Cc1ccc2nc(SCC(=O)N/N=C/c3ccc(C(=O)O)cc3)cc(C)c2c1,inactive,
CCOC(=O)C1(C#N)Cc2ccccc2C1,inactive,
Cc1ccc(Nc2nc(N)c([N+](=O)[O-])c(N3CCCC(C)C3)n2)cc1C (configuration not stated),"inconclusive [inhibitor, single point]",
O=C(CC12CC3CC(CC(C3)C1)C2)NCc1ccc(F)cc1,"inconclusive [inhibitor, single point]",
CC(OC(=O)/C=C/c1cccs1)C(=O)Nc1ccc(S(N)(=O)=O)cc1 (configuration not stated),"inconclusive [inhibitor, single point]",
Cc1cc(C)cc(N(C(=O)c2snc(C(N)=O)c2N)C(C(=O)NCC2CCCO2)c2ccc(C)o2)c1 (configuration not stated),"inconclusive [inhibitor, single point]",
COc1ccc(-c2cc(C(F)(F)F)nc(SCCC(=O)NCc3ccccc3)n2)cc1,"inconclusive [inhibitor, single point]",
CCN(CC)C1Oc2cc3c(cc2C(c2cc(OC)c(O)c(OC)c2)C1C)OCO3 (configuration not stated),"inconclusive [inhibitor, single point]",
COc1ccc([C@H]2CC(=O)C=C(c3cccc(OC)c3OC)C2)cc1OC,"inconclusive [inhibitor, single point]",
Cc1ccc(-c2cccc(OC(=O)c3ccccc3F)c2)cc1,inactive,
COc1ccc(Cc2nc3ccc(C(=O)N(C)C(C)c4ccon4)cc3o2)cc1 (configuration not stated),"inconclusive [inhibitor, single point]",
O=[N+]([O-])c1nn(-c2ccccc2)n(O)c1=NCc1ccc2c(c1)OCO2,"inconclusive [inhibitor, single point]",
COc1ccc(OC)c(NC(=O)C2=C(C)C(=O)OC23CCCCCC3)c1,,inconclusive: -33.9% [inhibitor]
Cc1ccc(C)c(N2CCN(S(=O)(=O)c3c(C)[nH]c(C)c3C(=O)N3CCCC3)CC2)c1,"inconclusive [inhibitor, single point]",
S=C(NCc1ccccc1)Nc1cccc2ccccc12,active: 18.4 µM,

SMILES,Potency,"activity change, negative = growth inhibition"
COC(=O)C1CN(C(=O)C(C)Oc2ccc(C(C)C)cc2)c2ccccc2O1 (configuration not stated),inactive,
O=C(C1CCC(=O)N(C2CC2)C1)N1CCC(Oc2cccc(C(F)(F)F)c2)CC1 (configuration not stated),"inconclusive [inhibitor, partial curve]",
Cc1ccc(-c2cc(C(=O)NCc3ccco3)c3ccccc3n2)o1,"inconclusive [inhibitor, single point]",
CCO[C@@H]1OC(C(N)=O)=C[C@H](c2ccccc2)[C@H]1CCCO,inactive,
CNC[C@H]1Oc2c(NS(=O)(=O)c3ccccc3)cccc2C(=O)N([C@H](C)CO)C[C@@H]1C,"inconclusive [inhibitor, single point]",
CC(C)(C)C(=O)Nc1cccc(C(=O)c2cccc(NC(=O)C(C)(C)C)c2)c1,"inconclusive [inhibitor, single point]",
CCN(CC)CCCNC(=O)c1cnc(SC)nc1-c1ccccc1,inactive,
O=C(C[C@H]1C[C@H](C(=O)N2CCOCC2)[C@@]2(CCC3CCCC3)c3[nH]c4ccc(Cl)cc4c3CCN2C1=O)NCCc1ccccn1,active: 16.4 µM,
CC(=O)N[C@@H](C)C(=O)N1CCC(n2nccc2NC(=O)CCCc2ccccc2)CC1,inactive,
CN1CCN(C(=O)c2ccccc2N(Cc2ccccc2)S(=O)(=O)c2ccccc2)CC1,"inconclusive [inhibitor, full curve, poor fit]",
CC(=O)c1cccc(OCC(=O)N2CCCc3ccccc32)c1,,inconclusive: -31.8% [inhibitor]
Cc1ccc(CN(C(=O)COc2ccc([N+](=O)[O-])cc2)c2ccccn2)cc1,"inconclusive [inhibitor, single point]",
Nc1nc(/C=C/c2ccc(F)cc2)nc(-c2ccccc2O)n1,"inconclusive [inhibitor, single point]",
CC(=O)Nc1cccc(NC(=O)CCN2C(=O)c3ccccc3S2(=O)=O)c1,inactive,
Cn1cccc1Cc1nnc(SCC(=O)N2CCCCCC2)n1-c1ccc(F)cc1,"inconclusive [inhibitor, single point]",
O=C(Nc1c(C(=O)Nc2ccc3c(c2)OCCO3)cnn1-c1ccccc1Cl)c1ccco1,"inconclusive [inhibitor, full curve]",
O=C(COc1ccc(Cl)cc1)Nc1nnc(S(=O)(=O)N2CCc3ccccc32)s1,"inconclusive [inhibitor, single point]",
CC(C(=O)NC(C)(C)C)n1c(-c2ccc3c(c2)OCO3)nc2ccccc21 (configuration not stated),"inconclusive [inhibitor, single point]",
C/C(=N\Nc1ccc(S(=O)(=O)Nc2ccc(Cl)cc2)cc1[N+](=O)[O-])c1ccc(N2CCOCC2)cc1,"inconclusive [inhibitor, single point]",
CC(C)CCNC(=O)c1onc(CSc2ccccn2)c1C(=O)NCCC(C)C,"inconclusive [inhibitor, single point]",
C=CCN1C(=O)S/C(=C/c2ccc(Sc3nc4ccccc4[nH]3)o2)C1=O,active: 23.1 µM,
CCN(C(=O)CSc1nc2ncccc2[nH]1)c1ccc(C(C)C)cc1,inactive,
COc1cccc(-c2ncnn2-c2sc3c(c2C#N)CCCCC3)c1OC,inactive,

SMILES,Potency,"activity change, negative = growth inhibition"
CCOC(=O)c1c(N2CCCCC2)c2ccccc2[nH]c1=O,"inconclusive [inhibitor, single point]",
COc1ccc(OC)c(NC(=O)Nc2ccc(O)c3ccccc23)c1,active: 2.59 µM,
CCC(C)(C(=O)NC1CCCCC1)N(C(=O)CNC(C)=O)c1c(C)n(C)n(-c2ccccc2)c1=O (configuration not stated),inactive,
CCOc1ccccc1-n1c(=S)sc2c(=O)n(-c3ccc(C)cc3)c(=S)[nH]c21,"inconclusive [inhibitor, single point]",
N#CCC(=O)Nc1ccc(C(=O)OCC(=O)c2ccc3c(c2)OCCO3)cc1,"inconclusive [inhibitor, single point]",
O=C(COc1ccccc1Cl)Nc1ccc2oc(=O)ccc2c1,inactive,
CC1CC(c2ccccc2)=Nc2ccccc2N1 (configuration not stated),"inconclusive [inhibitor, single point]",
CCOc1ccc(CCNC(=O)c2cn(C)c3ccc(S(=O)(=O)N4CCCCCC4)cc3c2=O)cc1OCC,"inconclusive [inhibitor, single point]",
COc1ccc(-c2csc(N3CCN(S(=O)(=O)c4ccc5c(c4)NC(=O)CO5)CC3)n2)cc1,"inconclusive [inhibitor, single point]",
COc1ccc(CNc2nc3c(-c4cccc(C)c4)nnn3c3ccccc23)cc1,"inconclusive [inhibitor, single point]",
Cc1cccc(-c2nnc(SCC(=O)Nc3cccc(C(=O)N4CCOCC4)c3)n2C)c1,inactive,
CN(C(=O)C1CCC(=O)N(CCc2ccc(Cl)cc2)C1)C1CCOCC1 (configuration not stated),inactive,
CCCN1CCN(C(=O)c2cnn(-c3ncc4c(n3)-c3ccccc3CCC4)c2COC)CC1,,inactive: 14.6% [at 9.04 µM]
Cc1ccc(OCC(=O)NCCNC(=O)COc2ccc(C)cc2)cc1,inactive,
COc1cc(/C=C/C(=O)N(C)CC(=O)Nc2ccccc2SC)cc(OC)c1OC,"inconclusive [inhibitor, single point]",
CC(C)c1ccc(NC(=O)Cn2cc(S(=O)(=O)N3CCN(c4ccccc4F)CC3)c3ccccc3c2=O)cc1,inactive,
CCOC(=O)c1c(C)[nH]c(C)c1S(=O)(=O)N(C)CC(=O)N1CCN(c2ccccc2)CC1,"inconclusive [inhibitor, single point]",
COc1ccccc1NC(=O)c1c(NCc2ccc(OC)c(OC)c2OC)sc2c1CCC2,"inconclusive [inhibitor, single point]",
Cc1cc(C(=O)COC(=O)c2cc(O)c3ccccc3c2O)c(C)n1CC1CCCO1 (configuration not stated),active: 16.4 µM,
CCCC(C(=O)NC1CCCC1)N(Cc1ccc(F)cc1)C(=O)c1snc(C(N)=O)c1N (configuration not stated),inactive,
C[C@]12C=C[C@H](O)CC1=CCC1C2CC[C@@]2(C)C1CCC21OCCO1 (some centres not stated),"inconclusive [inhibitor, single point]",
